Laboratory results as given in patent US7432350B2 (priority 2002, dated 2008).

Biological target: S. cerevisiae ACCase BC domain (pCS16) (Saccharomyces cerevisiae, UniProt Q00955)
Source text: Soraphen binding assay. […] Like pCS8, both of these constructs express their respective BC domains as N-terminal-His-tagged fusion proteins to facilitate purification. […] Therefore, pCS16M protein would be an excellent counter-selection agent to eliminate non-soraphen-binding-site interactions.

## CO[C@H]1CCCC[C@@H](c2ccccc2)OC(=O)[C@@H](C)[C@@]2(O)O[C@H]([C@@H](C)[C@H](O)[C@H]2OC)[C@@H](C)/C=C/[C@H]1OC [soraphen A]
  soraphen binding to pCS16 protein: high-affinity
